Test results reported in PubChem BioAssay AID662 (National Center for Advancing Translational Sciences (NCATS), 2007).
Hit rate of the full screen: of about 71,000 compounds, about 1,800 (2.5%) were called active. This list was built around the results that the source calls inconclusive (neither active nor inactive); the mix of calls is not that of the screen. Calls come from the whole dose curve; as a rule, active = well fitted activation curve with a large enough effect in the signal ratio, with a control signal flat (not every such curve was filed as active); inconclusive = small, poorly fitted or top-dose-only effect, or effect the other way, or a change in a side signal; inactive = flat fitted curve, though single readings scatter; the % refers to the signal ratio. Where the call is inconclusive, the potency comes from a doubtful curve fit.

experiment: Cell signaling CRE-BLA (Fsk stim); settings: CHO CRE-bla reporter (cAMP response element driving beta-lactamase), forskolin EC10, beta-lactamase ratio; activity change, negative = inhibition: at 38.2 µM (top of the series) unless noted; for activity change, negative = inhibition: % of control where 0% means no effect
How it was run: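 Using CellSensor CRE-bla CHO cells in Opti-MEM with 0.5% dialyzed FBS, compounds were titrated with EC10 NKH 477 for 3 h at 37 °C. CCF4 ratio (460/530 nm) gave %Activity; AC50 derived.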
Potency is the fitted concentration of half-maximal effect; tags give direction and shape of the fitted curve.

Structure (SMILES) | activity change, negative = inhibition | Potency
COc1ccc(S(=O)(=O)Cc2ccc(C(=O)N3CCN(C4CCCCC4)CC3)o2)cc1 | inactive | 
C=C1CC(C)OC(c2ccccc2OCC(O)CN2CCCCC2)C1 (centres undefined) |  | inconclusive: 25.1 µM [falling, single point]
COc1ccc(N2CCN(C(=O)CSc3nnc4n3C(C)(C)Cc3ccccc3-4)CC2)cc1 | inactive | 
Cc1nc2ccccc2nc1CSc1nncs1 |  | inconclusive: 12.6 µM [rising, single point]
CN(C)c1nc(N)nc(-c2nc3ccccc3s2)n1 | inactive | 
COc1ccc(Oc2ncc3nc(C)c(=O)n(C)c3n2)cc1 | inconclusive: 10.8% | 
CCOC(=O)c1c(C)oc2c(CN3CCN(C)CC3)c(Br)c(OC)c(O)c12 |  | inconclusive: 0.794 µM [rising, partial curve]
CC1CCC(n2c(=S)[nH]c3ccccc3c2=O)CC1 (centres undefined) |  | inconclusive: 12.6 µM [rising, partial curve]
O=C(COc1ccc(Cl)cc1)Nc1ccccc1N1CCOCC1 | inactive | 
O=C(Nc1cccc2nsnc12)C1CC(=O)N(c2ccccc2)C1 (centres undefined) | inactive | 
O=C(CCSc1nnc(-c2ccco2)o1)Nc1ccc(Cl)cc1 | inconclusive: 18.4% [cytotoxic] | 
O=C(c1cc(C(F)(F)F)cc(C(F)(F)F)c1)N1CCC2(CCCN(c3ccccc3)C2)CC1 | inactive | 
Cc1cccc(-c2noc(CN(C)S(=O)(=O)c3cc(Cl)ccc3Cl)n2)c1 | inactive | 
O=C(CSc1nncs1)NCc1ccc2c(c1)OCO2 | inactive | 
COc1ccc(CNc2ccnc(-c3ccoc3)n2)c(OC)c1 | inconclusive: 6.47% | 
CC(=O)Nc1ccc(S(=O)(=O)NC(CC(=O)O)c2ccc(OC(C)C)cc2)cc1 (centres undefined) | inactive | 
COc1ccc(N2CCN(S(=O)(=O)c3ccc(Br)s3)CC2)cc1 |  | inconclusive: 3.98 µM [falling, partial curve]
Nc1nc(Sc2ccc([N+](=O)[O-])c3nonc23)c2[nH]cnc2n1 | inactive: -8.43% [at 7.6 µM] | 
COCCNC(=O)c1cc(-c2cccs2)on1 | inactive | 
Cc1nc(SCC(=O)NCc2ccccc2)c2c(=O)n(C)c(=O)n(C)c2n1 |  | inconclusive: 12.6 µM [rising, partial curve]
CCOC(=O)c1ccccc1NC(=O)CN(c1cccc(OC)c1)S(C)(=O)=O | inconclusive: 23.4% [at 7.6 µM] | 

Structure (SMILES) | activity change, negative = inhibition | Potency
CCOc1ccc(N2C(=O)c3ccc(C(=O)OCc4c(C)noc4C)cc3C2=O)cc1 | inconclusive: 0.687% | 
Cc1ccc(C(=O)CSc2nnc(-c3ccco3)n2Cc2ccccc2)cc1 | inactive | 
COc1cccc(-c2ccc3ncnc(N4CCNCC4)c3c2)c1 |  | inconclusive: 10 µM [rising, single point]
O=C(Nc1ccc2nc(-c3ccco3)[nH]c2c1)c1cccs1 | inactive | 
CCCCP(=O)(CCCC)c1ccccc1C(=O)O | inconclusive: -8.51% [at 7.6 µM] | 
C/C(Cl)=C/Cn1c(N2CCCC2)nc2c1c(=O)n(C)c(=O)n2C |  | inconclusive: 12.6 µM [rising, single point]
Cc1cc(/C=N/n2cnnc2)c(C)n1-c1ccc(OCc2ccccc2F)cc1 | inactive: 23.9% [at 7.6 µM] | 
CCOC(=O)C1CCCN(C(=O)c2cc3c(=O)n(C)c4ccccc4c3n2C)C1 (centres undefined) | inconclusive: 27% | 
Cn1c(C(=O)N2CCCCCC2)cc2c(=O)n(C)c3ccccc3c21 |  | inconclusive: 5.01 µM [rising, partial curve]
CCOC(=O)Nc1nnc(-c2cccc(OC)c2)s1 | inactive | 
C[C@@H]1O[C@H](O[C@@H]2\C=C/C=C\C=C/C=C\C[C@H](C)OC(=O)/C=C\[C@H]3O[C@@H]3C[C@H](O)C[C@]3(O)C[C@@H](O)[C@@H](C(=O)O)[C@H](C2)O3)[C@@H](O)[C@H](N)[C@@H]1O (stereo in doubt) | inactive | 
O=C(c1ccco1)N1CCN(C(=O)c2cnn3c(C(F)(F)F)cc(-c4cccs4)nc23)CC1 |  | inconclusive: 7.94 µM [rising, partial curve, poor fit]
CCN(CC)CC#CC(C)OCOCC#CCOC (centres undefined) |  | inconclusive: 0.00316 µM [falling, full curve, poor fit]
Cc1ccc(-c2csc(=S)n2CC(=O)OCC(=O)NCc2ccco2)cc1 | inconclusive: -24.7% | 
CCOC(=O)CSC1=C(C#N)C(c2ccc(C)s2)CC(=O)N1 (centres undefined) |  | inconclusive: 12.6 µM [rising, single point]
Cc1ccc(NC(=O)COc2ccc3oc4c(c3c2)CCCC4)nc1 | inactive | 
O=C(NCC1CCCO1)c1ccccn1 (centres undefined) | inactive | 
COC(=O)C1=C(C)N(C)C(C)=C(C(=O)OC)C1c1ccncc1 | inconclusive: 2.8% | 
Cc1ccccc1Cn1c(CN2CCN(c3ccc(F)cc3)CC2)nc2c1c(=O)n(C)c(=O)n2C | inconclusive: -3.52% [fluorescent] | 
CCOC(=O)/C(C#N)=C1/C=Cc2ccccc2N1CC |  | inconclusive: 15.8 µM [rising, partial curve]
O=NC1=C(c2c(O)[nH]c3ccccc23)CCCC1 | inactive | 

Structure (SMILES) | activity change, negative = inhibition | Potency
O=C(NCc1ccccc1F)C1CCCN(C(=O)NC2CCCCC2)C1 (centres undefined) | inactive | 
CCOC(=O)CSc1nnc(-c2ccc(Cl)cc2Cl)o1 | inactive | 
CC(C)(C)S(=O)(=O)c1ccccc1C(=O)O | inconclusive: -22.9% | 
COc1ccc(NC(=O)c2ccc3c(c2)n(C)c(=O)n3C)cc1 | inconclusive: 28.5% | 
COC(=O)CSc1nnc2c3c4c(sc3nc(-n3nc(C)cc3C)n12)COC(C)(C)C4 |  | inconclusive: 3.16 µM [rising, full curve, poor fit]
O=C(CSc1nnc2ccccn12)Nc1ccccc1C(=O)NC1CC1 |  | inconclusive: 15.8 µM [falling, single point]
Cc1ccc(-c2nc3cnccn3c2Nc2ccc3c(c2)OCCO3)o1 |  | inconclusive: 10 µM [rising, partial curve]
COc1cc2c(C(=O)NC3CCCCCC3)cn(C)c(=O)c2cc1OC |  | active: 2 µM
Cc1ccc(-n2nc3c(c2NC(=O)c2c(-c4ccccc4Cl)noc2C)CSC3)cc1 | inconclusive: -15.8% | 
C/C(=C\c1ccc(C(=O)O)cc1)c1ccc2c(c1)C(C)(C)CCC2(C)C | inactive | 
CC1CCCN(c2ccc(C(=O)NCc3cccs3)cn2)C1 (centres undefined) | inactive | 
Cc1cc(NC(=O)c2cnn3c(C(F)F)cc(-c4ccccc4)nc23)no1 | inconclusive: 14.1% | 
COc1ccc(NC(=O)COn2nnc3ccc(Cl)cc32)cc1OC |  | inconclusive: 10 µM [rising, single point]
CCc1c(C(=O)Nc2ncn(Cc3cccc(C)c3)n2)csc1C | inconclusive: -16% | 
O=C(NCCC(=O)N1CCN(c2ncccn2)CC1)c1ccccc1 | inconclusive: -1.42% | 
O=C(O)c1c[nH]c2ccc(S(=O)(=O)N3CCN(c4ccc(F)cc4)CC3)cc2c1=O | inactive | 
N[C@@H](C(=O)O)[C@H](CC(=O)O)c1ccc(Cl)cc1 | inactive | 
N=c1oc2c3c4c(cc2cc1C(=O)Nc1ccccc1)CCCN4CCC3 |  | inconclusive: 1.26 µM [rising, full curve]
CCn1c2c(c3cc(C(=O)O)ccc31)CCCC2=O |  | inconclusive: 10 µM [rising, partial curve]
O=C(COC(=O)Cc1cn2ccsc2n1)NC12CC3CC(CC(C3)C1)C2 | inactive | 
CCOC(=O)C1CCN(S(=O)(=O)c2cc(Br)cc3c2N(C(C)=O)C(C)C3)CC1 (centres undefined) | inactive | 

Structure (SMILES) | activity change, negative = inhibition | Potency
O=S(=O)(O)O | inactive | 
C/C(=N/NC1=NCCN1)c1cn(C2=NCCN2)nc1C | inactive: 5.49% [at 7.6 µM] | 
CCc1ccc(C(=O)CSc2n[nH]c(C)n2)cc1 | inconclusive: 13.3% [at 7.6 µM] | 
O=C1C(Cl)=C(Nc2ccccc2O)C(=O)N1c1ccccc1 | inactive | 
CCOC(=O)c1ccccc1NC(=O)Cn1cnc2c(cnn2-c2ccccc2)c1=O | inconclusive: 2.22% | 
Fc1ccc(OCc2nc(-c3ccc(Br)o3)no2)c(F)c1 | inactive | 
CN(C)/C=N/c1nc2ccc3c(c2s1)CCCC3 | inactive | 
CCN(CC)c1ccc(NC(=O)c2ccc(Br)o2)cc1 | inconclusive: -15.2% [at 7.6 µM] | 
Cc1cc(N2CCC(C)CC2)nc2ccc(N3C(=O)CCC3=O)cc12 | inconclusive: 7.77% | 
CCOc1ccccc1C1CC(=O)NC2=C1C(=O)CCC2 (centres undefined) | inactive | 
COc1ccc(C(=O)Nc2ccc(C)cn2)c(OC)c1 | inactive | 
COc1ccc(C(c2nnnn2CCc2ccccc2)N2CCN(C3CCCC3)CC2)cc1OC (centres undefined) | inactive | 
Cc1ccc(-c2nc(COC(=O)c3c(C)noc3C)cs2)cc1 | inconclusive: 10.2% [cytotoxic] | 
Cc1ccc(-c2cc(-c3ccccc3Cl)[nH]n2)c(O)c1 | inconclusive: -18.9% | 
CC(C)(Oc1ccc(Cl)cc1)C(=O)Nc1ccc2oc(-c3ccncc3)nc2c1 | inconclusive: 9.58% | 
O=C(NCCc1ccccc1)C1CCCN1C(=O)Nc1ccc(F)cc1 (centres undefined) | inconclusive: -1.46% | 
COc1ccc(-n2c(=O)c(CCc3ccccc3)nc3cnc(N4CCNCC4)nc32)cc1 |  | inconclusive: 12.6 µM [rising, single point]
Cc1ccc(-n2nnnc2SCC(=O)c2cc(C)n(-c3cc(C)on3)c2C)c(C)c1 | inactive | 
CN(C)C(=O)c1ccc(-c2nccc(NCc3cccnc3)n2)cc1 | inconclusive: 20.1% | 
O=C(COC(=O)C12CC3CC(CC(O)(C3)C1)C2)NC(=O)NCc1ccco1 |  | inconclusive: 25.1 µM [rising, single point]
O=C(c1cc2nc(-c3ccccc3)cc(C(F)(F)F)n2n1)N1CCCC1 |  | inconclusive: 10 µM [rising, single point]
